In US20240150487A1, “COMBINATIONS WITH AN ANTI HUMAN CD39 ANTIBODY, AN ANTI HUMAN PD-1 ANTIBODY, AND CHEMOTHERAPY IN GASTRIC CANCER” (Trishula Therapeutics Inc., priority 2022, published 2024):

Experiments:
[1] = Clinical PK of the anti-human CD39 antibody (dose escalation); assay type: in vivo; conditions: 40 mg/kg Q3W; functional level based on preclinical human functional assays (IL-2 from PBMCs, inflammasome activation)
Procedure: After the completion of the dose escalation portion of the study, the totality of the PK data was used for PK modeling for the RP2D. Based on simulations, it was determined that a loading dose of 40 mg/kg one week prior to Cycle 1, Day 1 dosing of 30 mg/kg Q3W or 20 mg/kg Q2W will provide a minimal functional trough level in greater than 80% of subjects before Cycle 1, Day 1 and in cycles thereafter.

[2] = Tolerability of the anti-human CD39 antibody (dose escalation); assay type: in vivo; conditions: doses up to 40 mg/kg
Procedure: An RP2D of the anti human CD39 antibody was determined to be a 40 mg/kg loading dose 7 days prior to Cycle 1 Day 1 and then either 30 mg/kg Q3W or 20 mg/kg Q2W.

B1: anti-human CD39 antibody: anti-human CD39 antibody; VH SEQ ID NO: 25, VL SEQ ID NO: 29; heavy chain SEQ ID NO: 33, light chain SEQ ID NO: 34 (antibody)
heavy: QVQLVQSGAEVKKPGASVKVSCKASGYTFKSYEMHWVRQAPGQGLEWMGRINPSVGSTWYAQKFQGRVTMTRDTSTSTVYMELSSLRSEDTAVYYCARGKREGGTEYLRKWGQGTLVTVSSASTKGPSVFPLAPCSRSTSESTAALGCLVKDYFPEPVTVSWNSGALTSGVHTFPAVLQSSGLYSLSSVVTVPSSSLGTKTYTCNVDHKPSNTKVDKRV[human IgG4 Fc with S228P (EU numbers) cut from this listing]
light: EIVLTQSPGTLSLSPGERATLSCRASQSVASSYLAWYQQKPGQAPRLLIYGASNRHTGIPDRFSGSGSGTDFTLTISRLEPEDFAVYYCQQYHNAITFGGGTKVEIKRTVAAPSVFIFPPSDEQLKSGTASVVCLLNNFYPREAKVQWKVDNALQSGNSQESVTEQDSKDSTYSLSSTLTLSKADYEKHKVYACEVTHQGLSSPVTKSFNRGEC
[1]
  trough level: achieved a minimal functional trough level
[2]
  tolerability: well tolerated
